Data published in PubChem BioAssay AID485294 (National Center for Advancing Translational Sciences (NCATS), 2010).
Among all 370,000 compounds or so, about 150 (0.041%) were called active. Inconclusive means that the source gave no clear call. Such entries were picked first, then a sample of the others. Calls follow the shape of the dose curve; as a rule, active = well fitted inhibition curve with a large enough effect; inconclusive = small, poorly fitted or top-dose-only effect; inactive = flat fitted curve, though single readings scatter. Potencies of inconclusive entries are left out as doubtful fits.

target: Beta-lactamase (Escherichia coli (strain K12)) (UniProt P00811); assay: qHTS Inhibitors of AmpC Beta-Lactamase (assay with detergent); conditions: AmpC hydrolysis of nitrocefin, absorbance 480 nm, 0.01% Triton; series mostly up to 114 µM; also: nearly all actives have a fitted effect of over 25% in size
UniProt P00811, sequence (P00811 whole entry, looked up): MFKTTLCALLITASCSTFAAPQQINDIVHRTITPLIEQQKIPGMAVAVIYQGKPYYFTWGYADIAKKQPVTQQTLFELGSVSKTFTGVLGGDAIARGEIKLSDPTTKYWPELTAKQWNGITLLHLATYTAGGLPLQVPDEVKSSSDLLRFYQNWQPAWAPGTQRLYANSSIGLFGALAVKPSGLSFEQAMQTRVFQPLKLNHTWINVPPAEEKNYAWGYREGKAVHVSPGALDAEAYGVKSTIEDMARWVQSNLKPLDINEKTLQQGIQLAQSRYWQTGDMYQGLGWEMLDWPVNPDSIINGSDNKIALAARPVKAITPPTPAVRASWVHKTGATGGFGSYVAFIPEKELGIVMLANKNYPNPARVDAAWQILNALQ
Method in brief: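 20 mM phosphate pH 7.0 + 0.01% (detergent screen) or 0.0001% Triton X-100; 5.3 nM AmpC reagent; cpd preinc 15 min RT; nitrocefin (800 uM stock) to start; A480 q20 s × 4 min; Activity was normalised to no-enzyme and no-compound control wells.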
Potency is read from the fitted curve at half-maximal effect; tags tell the direction and shape of the fitted curve.

**Q.** Which Potency does the source give for `Cc1cccc(C(=O)NCC(=O)N2CC=C(c3ccccc3)CC2)c1` here?
**A.** inconclusive [inhibitor, partial curve, poor fit]

**Q.** Which Potency does the source give for `COc1ccc(CCNc2ccc(C(CC(N)=O)NC(=O)c3cc(C)cc(C)c3)cc2[N+](=O)[O-])cc1` (stereo unspecified) here?
**A.** inconclusive [inhibitor, partial curve, poor fit]

**Q.** With `O=C(c1cccc(-n2cccc2)c1)N1CCN(S(=O)(=O)c2ccccc2Br)CC1` as the molecule, how does the Potency read?
**A.** inconclusive [inhibitor, full curve]

**Q.** `COc1ccc2c(c1)[nH]c1c(=O)n(CCCN3CCOCC3)cnc12` was tested. Which Potency did it give?
**A.** inconclusive [inhibitor, full curve, poor fit]

**Q.** `COc1cccc(C(=O)Nc2nnc(-c3ccc(F)cc3)o2)c1` was tested. Which Potency did it give?
**A.** inactive

**Q.** Which Potency does the source give for `O=C(CSc1nc2c([nH]c3ccccc32)c(=O)n1-c1ccc(F)cc1)NCC1CCCO1` (stereo unspecified) here?
**A.** inactive

**Q.** With `CCOC(=O)N1CCN(c2nc(-c3ccc(OC)cc3)no2)CC1` as the molecule, how does the Potency read?
**A.** inconclusive [inhibitor, single point]

**Q.** For `CCCCCOc1ccc(C(=O)Nc2ccc(N3CCOCC3)cc2N2CCOCC2)cc1`, which Potency is on record?
**A.** inconclusive [inhibitor, full curve]

**Q.** For `NCCn1c(-c2ccccc2)cc(C(=O)O)c1-c1ccccc1F`, which Potency is on record?
**A.** inconclusive [inhibitor, full curve, poor fit]

**Q.** How did the Potency turn out when `COCCn1c(SCC(=O)c2ccc3c(c2)OCCO3)nnc1-c1ccco1` was run?
**A.** inactive

**Q.** `Cc1ccc(S(=O)(=O)N2CCC(C(=O)Nc3ccccc3N3CCCCC3)CC2)cc1C` was tested. Which Potency did it give?
**A.** inconclusive [inhibitor, full curve, poor fit]

**Q.** How did the Potency turn out when `COc1ccc(OC)c(C(=O)CSc2nc3cccnc3n2C)c1` was run?
**A.** inconclusive [inhibitor, single point]

**Q.** How did the Potency turn out when `Cc1c(C)c2ccc(OCC(=O)N3CCC(C(=O)O)CC3)c(C)c2oc1=O` was run?
**A.** inconclusive [inhibitor, full curve, poor fit]

**Q.** `COc1ccc(NC(=O)NC(C)c2ccccc2)cc1` (stereo unspecified) was tested. Which Potency did it give?
**A.** inactive

**Q.** Which Potency does the source give for `Cc1c(CCC(=O)O)c(=O)oc2c(C)c(OCc3ccccc3Cl)ccc12` here?
**A.** inconclusive [inhibitor, partial curve]

**Q.** `O=C(NCCc1ccc(Cl)cc1)c1cc2ccccn2n1` was tested. Which Potency did it give?
**A.** inactive

**Q.** How did the Potency turn out when `CCN(CC(=O)NCc1cccs1)C(=O)/C=C/c1cc(OC)c(OC)c(OC)c1` was run?
**A.** inconclusive [inhibitor, full curve, poor fit]

**Q.** For `COc1ccc(CCNC(=O)c2cc(-c3cc(C)cc(C)c3O)n[nH]2)cc1OC`, which Potency is on record?
**A.** inactive

**Q.** For `CCOC(=O)c1c(C)[nH]c(C)c1C(=O)COC(=O)c1cccc(S(=O)(=O)N(CC)CC)c1`, which Potency is on record?
**A.** inconclusive [inhibitor, full curve, poor fit]

**Q.** With `Cc1ccc(C)c(NC(=O)CS(=O)(=O)c2c[nH]c3ccccc23)c1` as the molecule, how does the Potency read?
**A.** inconclusive [inhibitor, partial curve]

**Q.** For `CC1CCN(C(=O)CSc2nnc(CNC(=O)COc3ccc(Cl)cc3)o2)CC1`, which Potency is on record?
**A.** inconclusive [inhibitor, full curve, poor fit]

**Q.** For `COc1ccccc1N1CCN(CCCNC(=O)Nc2ccccc2C)CC1`, which Potency is on record?
**A.** inconclusive [inhibitor, partial curve]

**Q.** How did the Potency turn out when `Cc1ccc2c(c1)C(N1CCCC1=O)CC(c1ccco1)N2` (stereo unspecified) was run?
**A.** inconclusive [inhibitor, partial curve, poor fit]

**Q.** For `CCOC(=O)N1CCN(CC(O)COc2ccc(C)c(C)c2)CC1` (stereo unspecified), which Potency is on record?
**A.** inactive

**Q.** How did the Potency turn out when `COc1cccc(C2=CC(c3ccc(C)cc3)n3ncnc3N2)c1` (stereo unspecified) was run?
**A.** inconclusive [inhibitor, partial curve]

**Q.** With `C/C(=N\NC(=O)c1ccn(C)n1)c1ccco1` as the molecule, how does the Potency read?
**A.** inconclusive [inhibitor, partial curve]

**Q.** How did the Potency turn out when `COc1ccc(OCCn2c(N)nc3ccccc32)cc1` was run?
**A.** inconclusive [inhibitor, full curve, poor fit]

**Q.** How did the Potency turn out when `NS(=O)(=O)c1ccc(NC(=S)Nc2ccc(S(=O)(=O)N3CCCC3)cc2)cc1` was run?
**A.** inactive

**Q.** Which Potency does the source give for `Cc1cc(Cl)ccc1NC(=O)CN1CCC(C(O)(c2ccccc2)c2ccccc2)CC1` here?
**A.** inconclusive [inhibitor, full curve]

**Q.** With `COc1ccc(Nc2nc(Nc3ccc(OC)cc3OC)nc(N3CCN(C)CC3)n2)c(OC)c1` as the molecule, how does the Potency read?
**A.** inconclusive [inhibitor, partial curve, poor fit]

**Q.** For `CCOC(=O)C1CCCN(C(=O)c2cc(S(=O)(=O)N3CCCCC3)ccc2Cl)C1` (stereo unspecified), which Potency is on record?
**A.** inactive

**Q.** How did the Potency turn out when `COc1cccc2cc(C(=O)C3=C(O)C(=O)N(Cc4ccco4)C3c3cccnc3)oc12` (stereo unspecified) was run?
**A.** inconclusive [inhibitor, full curve, poor fit]

**Q.** `C=CCN1C(=O)CN=C1Nc1cccc(C)c1` was tested. Which Potency did it give?
**A.** inconclusive [inhibitor, full curve, poor fit]

**Q.** How did the Potency turn out when `CCOC(=O)c1ccc(C(=O)OCC)c(NC(=S)Nc2ccc([N+](=O)[O-])cc2OC)c1` was run?
**A.** inconclusive [inhibitor, partial curve]

**Q.** How did the Potency turn out when `COc1ccc(Cc2nc3ccc(C(=O)NC(C)c4cn(C)nc4C)cc3o2)cc1` (stereo unspecified) was run?
**A.** inconclusive [inhibitor, full curve, poor fit]

**Q.** For `O=c1c2ccccc2nc(-c2cccs2)n1-c1cnccn1`, which Potency is on record?
**A.** inconclusive [inhibitor, partial curve]

**Q.** How did the Potency turn out when `Cc1ccc(OCCn2c(=O)n(C)c3ccccc32)cc1` was run?
**A.** inactive

**Q.** With `Cc1ccc(CNC(=O)C2(c3cccs3)CCOCC2)cc1` as the molecule, how does the Potency read?
**A.** inconclusive [inhibitor, full curve, poor fit]

**Q.** `CNc1nc(N)c([N+](=O)[O-])c(NC2CCCCC2)n1` was tested. Which Potency did it give?
**A.** inconclusive [inhibitor, full curve, poor fit]

**Q.** Which Potency does the source give for `CCOCCn1c(=NC(=O)c2ccc(S(=O)(=O)N3CCOCC3)cc2)sc2cc(S(N)(=O)=O)ccc21` here?
**A.** inconclusive [inhibitor, partial curve, poor fit]

**Q.** How did the Potency turn out when `COc1ccccc1NC(=O)c1ccccc1N(Cc1ccccc1)S(C)(=O)=O` was run?
**A.** inconclusive [inhibitor, partial curve, poor fit]
